Laboratory results: the DeepSol protein solubility set

Experiment: soluble on expression in E. coli; label from the status in PepcDB or PDB records

## MHYPEPLSKLIDSFMKLPGIGPKTAARLAFHVLAMKEDTVLEFAKALVDVKRHIHYCTICGHITDTDPCYICKDERRDRTTICVVQDPKDVIAMERMKEYNGLYHVLHGAISPMEGIGPEDIKIAELLTRLQDETVQEVILATDPNIEGEATAMYISRLLKPTGIKVTRIAHGLPVGGDLEYADEVTLSKALEGRREL
  soluble on expression in E. coli: soluble

## MSNLRLQKRLASAVLKCGKHRVWLDPNEVSEISGANSRQSIRRLVNDGLIIRKPVTVHSRFRAREYEEARRKGRHTGYGKRRGTANARMPEKTLWIRRMRVLRNLLRRYRDAKKLDKHLYHELYLRAKGNNFKNKKNLIEYIFKKKTENKRAKQLADQAQARRDKNKESRKRREERQVVKRAELLRKISQSEKVIAGK
  soluble on expression in E. coli: soluble

## QVQLVESGGGVVQPGRSLRLSCAASGFTFSSYGMHWVRQAPGKGLEWVAVISYDGSNKYYADSVKGRFTISRDNSKNTLYLQMNSLRAEDTAVYYCAKDGKCAGGSCYSGLLDYWGQGTLVTVSSASFKGPSVFPLAPSSKSTSGGTAALGCLVKDYFPEPVTVSWNSGALTSGVHTFPAVLQSSGLYSLSSVVTVPSSSLGTQTYICNVNHKPSNTKVDKKVEPKSCDKTHTGLEHHHHHH
  soluble on expression in E. coli: soluble

## MGSDKIHHHHHHMITIKKGLDLPITGGPEQVIHNGPAIKHVATLGEEYIGLRPTMKIKVGDKVQKGQVIFEDKKNPGVKYTALASGTISEINRGAQRVLQSVVIEVEGDDSVSFAKYDAAALDTLEPQLVRDNLIESGMWPALRTRPFSKAPAVDSTPAGIFVTAIDTQPLAADPAVIINEHKEDFANGLRVLARLTEGKVYLCKAPGADIPAANAQVEEFAGPHPAGLAGTHIHFVLPASAKRTVWHVGYQDVIAIGQLFTTGELNTQRVVAIAGPKALKPRLVRTHSGASIAELTAGETAQGDVRVIAGSVLSGKTATGPHAYLGRFFNQVSLLEEGREQEFIGWAMPGANKFSITRAFLGHLSPSRLFNMTTSTGGSDRAMVPIGNYERVMPLDILPTMLLRDLVSGDTDGAAALGALELDEEDLALCTFVCPGKYDYASYLRDCLDTIVREG
  soluble on expression in E. coli: not soluble

## NALKTPEKLQQAALPIVSEADCKKSWGSKITDVMTCAGASGVDSCMGDSGGPLVCQKDGVWTLAGIVSWGSGVCSTSTPGVYSRVTALMPWVQQILEAN
  soluble on expression in E. coli: soluble
